± gives the standard deviation of the averaged measurements. Some of the results follow.

For this assay, the system named is PfAP2-LT AP2 domain (GST-tagged). Nature of the assay: gcPBM binding intensity (ln(normalized median fluorescence intensity)); higher = stronger DNA binding. Put shortly:
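An Agilent 4 × 180k array carrying primer-extended double-stranded 36-bp intergenic genomic probes and negative controls received GST-tagged P. falciparum DNA-binding domains expressed in E. coli, about 25 μg on average, for 1 h. The binding buffer contained 1× PBS, 1% milk, 0.2 mg/ml BSA, 0.5% salmon testes DNA and 0.03% Triton X-100. Binding intensity is the top Masliner-normalised natural-log median intensity across replicate spots of either probe orientation, read after Alexa488 anti-GST antibody staining and a 488 nm scan.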
“TAAGAAAAATATATATGTACACATATATATATATAT [XGTACX_site8542]”: the “gcPBM binding intensity (ln)” value worked out at 9.49 ± 0.028.

With “TGTATGTTATATACAACACACAAAAAAAAACAAGTT [CACACA_site301]”, the “gcPBM binding intensity (ln)” value came to 9.12 ± 0.51.

For the sequence “AACTTTTATACGGATACACACAAAAAAAAATAAAAA [CACACA_site6547]”, the “gcPBM binding intensity (ln)” value was 8.89 ± 0.51.

For the sequence TACAATATTTCGAGCTTGCACTTTTATTAAGTAAAT, the “gcPBM binding intensity (ln)” value amounted to 8.54 ± 0.38.

As for “TATCTGTATTTGTATACACACAAATGTATTTATTTA [CACACA_site4830]”, the “gcPBM binding intensity (ln)” value worked out at 8.94 ± 0.44.

Consider “TATACAGACAGACACACACACATATATAAATATGTA [CACACA_site6912]”, for which the “gcPBM binding intensity (ln)” value is 9.76 ± 0.37.

As for “ATTATTATTTTTAACTGTACATAGATATAGATATCC [XGTACX_site8714]”, the “gcPBM binding intensity (ln)” value was determined as 8.62 ± 0.45.

For the sequence TACATATATCTATGTGTGCACTTATTTCCGGACAAA, the “gcPBM binding intensity (ln)” value came out at 9.23 ± 0.4.

Take “TAATTAGCATAATACACATGCATACATTTATATATA [TGCATGCA_site542]”: the “gcPBM binding intensity (ln)” value was found to be 8.69 ± 0.42.

Consider “AGTCTTTTACATTGCACACACATTTCTTTCCTTTTG [CACACA_site2988]”, for which the “gcPBM binding intensity (ln)” value stood at 9.61 ± 0.36.

In the case of “AAAAAAAAAAAACATACACACAAGAACAAAATATGA [CACACA_site3002]”, the “gcPBM binding intensity (ln)” value stood at 9.19 ± 0.41.

In the case of “ATGTGTATACTAAGAACACACAAGTTACTTGGTGTT [CACACA_site6864]”, the “gcPBM binding intensity (ln)” value came out at 9.07 ± 0.33.

With “TATTTAAAAGATGAAAGTACACATTTAATTACATTT [XGTACX_site3781]”, the “gcPBM binding intensity (ln)” value was found to be 8.46 ± 0.35.

Consider “TATATTTAACATACTTTTTTTTTTTTTTTTTTTTTT [CACACA_negctrl_site938]”, for which the “gcPBM binding intensity (ln)” value is 8.6 ± 0.3.

In the case of “ATATATATATATATATGTACTTAATATTTCTTATTT [XGTACX_site6206]”, the “gcPBM binding intensity (ln)” value stood at 9.55 ± 0.099.

On to “ATTTTTAATATTATTACACACACTAATAAAAAAAAA [CACACA_site8265]”, for which the “gcPBM binding intensity (ln)” value came out at 8.73 ± 0.35.

On to “TTTTTTTTAATTGTGATACGTATATTATTTTTTGAT [TGCATGCA_negctrl_site318]”, for which the “gcPBM binding intensity (ln)” value worked out at 8.68 ± 0.49.

With “ATATGTAAAGAAAAGTAAACACTAATTTTAAACAAT [CACACA_negctrl_site11]”, the “gcPBM binding intensity (ln)” value stood at 8.91 ± 0.54.

With “TATATATATGTGCAGTGTACTTTTTTTTTCTGTAAG [XGTACX_site3424]”, the “gcPBM binding intensity (ln)” value was determined as 8.71 ± 0.45.

As to “GAGAAGACATTACACAGTACCCAGGAAATCTACGGA [XGTACX_site1993]”, the “gcPBM binding intensity (ln)” value worked out at 8.98 ± 0.48.

Turning to “TATAAAGGTGAAATTTGTACATAGTCATTTTTTAAT [XGTACX_site4811]”, the “gcPBM binding intensity (ln)” value came out at 8.52 ± 0.42.

Consider “TCGACAAATGTATATACACACATTTGTAACATAAAT [CACACA_site560]”, for which the “gcPBM binding intensity (ln)” value is 9.18 ± 0.24.

With “TTCTTTTTTAAACACACACACACAAGAAAATATATA [CACACA_site5680]”, the “gcPBM binding intensity (ln)” value was 9.66 ± 0.35.

In the case of TGACGAAAAAAAAGGGTGCTTAGTATAACTTTAAAG, the “gcPBM binding intensity (ln)” value was 8.52 ± 0.47.

As to “TGATTAAAAGAGGGAAAAAAAAAAAAAAAAAAAAAA [CACACA_negctrl_site896]”, the “gcPBM binding intensity (ln)” value was 8.31 ± 0.38.

For the sequence “ATTTTTTTTTTAAAATGTACATGAGAAATTGTATAT [XGTACX_site425]”, the “gcPBM binding intensity (ln)” value was 8.47 ± 0.42.

On to “TTTCTTATATAAGTGTACTAAAATATATATATGCAA [GTGCAC_negctrl_site546]”, for which the “gcPBM binding intensity (ln)” value came out at 8.38 ± 0.44.

Consider “TAAAAAAATAAATATACACACATATATAAATATGTA [CACACA_site6641]”, for which the “gcPBM binding intensity (ln)” value worked out at 8.77 ± 0.36.

For “TATATTATTAATTAAGCACACATTATTTTTATAATA [CACACA_site3982]”, the “gcPBM binding intensity (ln)” value turned out to be 8.51 ± 0.43.

“TAACATAATATAGACACACACATGTACATATGCCAA [CACACA_site1842]”: the “gcPBM binding intensity (ln)” value stood at 9.49 ± 0.41.

Regarding “CAAAGATATATAAACACACAAATATAACATATATAC [CACACA_site7395]”, the “gcPBM binding intensity (ln)” value turned out to be 9.18 ± 0.42.

On to “TATGAATATCTATACACACACATATATATACTCACT [CACACA_site1597]”, for which the “gcPBM binding intensity (ln)” value amounted to 9.39 ± 0.36.

On to “TATATTATTATATATTGTACTTTTTATATTTGCATT [XGTACX_site2978]”, for which the “gcPBM binding intensity (ln)” value was found to be 8.88 ± 0.53.

TACACTTGTAATTGCGTGCACGAAGGATATATATAT: the “gcPBM binding intensity (ln)” value is 9.13 ± 0.32.

Take TATGTATATTTTTTTGTGCACATATATATATATATA: the “gcPBM binding intensity (ln)” value turned out to be 9.4 ± 0.2.

“ATATAATTATATAAATGTACTCATTCGTTATTTTGC [XGTACX_site6132]”: the “gcPBM binding intensity (ln)” value came out at 8.76 ± 0.42.

Regarding “AAATATAATAATAATTTAAGAATCTAATATTTTATA [CACACA_negctrl_site831]”, the “gcPBM binding intensity (ln)” value came to 8.1 ± 0.49.

Take “TACTATATCGATACCAGTACAGATTTATAAATAATA [XGTACX_site7491]”: the “gcPBM binding intensity (ln)” value was found to be 8.63 ± 0.45.

Consider “TTATAAAAAAAAATAACACACAGACATAAGAATAAA [CACACA_site9383]”, for which the “gcPBM binding intensity (ln)” value was 9.1 ± 0.42.

For the sequence “TATATTAAGTATAAGACACACATATAGTAATAGAAA [CACACA_site5176]”, the “gcPBM binding intensity (ln)” value came out at 9.04 ± 0.36.

Take “GGTATACATATTAAATGTACATATTTTAACAATAAG [XGTACX_site4868]”: the “gcPBM binding intensity (ln)” value turned out to be 8.74 ± 0.46.

“ATATAACTTTTCTTAACACACAAAAAACAAAAATAA [CACACA_site2380]”: the “gcPBM binding intensity (ln)” value came out at 8.68 ± 0.49.

Regarding “AAGTGTCAAAGTTACACACACAAACTTGTCATTTTT [CACACA_site837]”, the “gcPBM binding intensity (ln)” value is 9.38 ± 0.33.

In the case of “TTACACAAACAAATTATGGACACATAAGTAAAAGGA [CACACA_negctrl_site1622]”, the “gcPBM binding intensity (ln)” value worked out at 8.94 ± 0.43.

As to “TTATCCATAAAAAAGTGTACGCACTAAAATTGAAAA [XGTACX_site5460]”, the “gcPBM binding intensity (ln)” value came to 8.54 ± 0.46.

As for “GAAAAAAGAAAAAAAAGTACATATATTTAATAAGAC [XGTACX_site6912]”, the “gcPBM binding intensity (ln)” value amounted to 8.82 ± 0.57.

In the case of “TATAATTCATATGAAACACACATTTATTTTAATTAC [CACACA_site3686]”, the “gcPBM binding intensity (ln)” value came to 8.71 ± 0.4.

On to “TAGGCGTTTAATAAAAGTACCCACACATATATTATT [XGTACX_site1932]”, for which the “gcPBM binding intensity (ln)” value worked out at 8.88 ± 0.4.

“TTTATTATCGTTCTCATACACACAAAATATACATAC [CACACA_site2642]”: the “gcPBM binding intensity (ln)” value amounted to 9.06 ± 0.41.

Regarding “AAATATATATGTGGGGGTACTAATAAAAAAACCCCT [XGTACX_site2657]”, the “gcPBM binding intensity (ln)” value is 8.84 ± 0.42.

As to “ATTTAACAACTTCAAACACACAATATATATATATAT [CACACA_site2093]”, the “gcPBM binding intensity (ln)” value was found to be 9.07 ± 0.46.

On to “AATTCAAATATAAATACACACACATAGCTACAAAAT [CACACA_site9386]”, for which the “gcPBM binding intensity (ln)” value was 9.48 ± 0.27.

As to “CATAAATTAATAGTCACACACGTATTTTTTATATAT [CACACA_site2526]”, the “gcPBM binding intensity (ln)” value is 8.96 ± 0.37.

Consider “AAAAAAAAAAAAAGGTGTACATGCAAAATAAATTCT [XGTACX_site4592]”, for which the “gcPBM binding intensity (ln)” value amounted to 9.03 ± 0.42.

Regarding “AAATAAATAAGAAACGCATGCATATATAATATATAA [TGCATGCA_site326]”, the “gcPBM binding intensity (ln)” value worked out at 9.22 ± 0.34.

With “GTTATTTATAGACACACACACATGCATGCACATATA [CACACA_site6204]”, the “gcPBM binding intensity (ln)” value is 9.78 ± 0.25.

For the sequence “CATATGTTCATCATAGCACACATATATAAATTACAA [CACACA_site9177]”, the “gcPBM binding intensity (ln)” value was 9 ± 0.44.

“TATATATATATATATTGTACATAATGTATATATGTT [XGTACX_site3448]”: the “gcPBM binding intensity (ln)” value amounted to 9.15 ± 0.3.
